{"sequences": {"note": "Protein sequences, listed by entry. Tags and fused reporters are not part of them.", "UniProt Q5NE24": "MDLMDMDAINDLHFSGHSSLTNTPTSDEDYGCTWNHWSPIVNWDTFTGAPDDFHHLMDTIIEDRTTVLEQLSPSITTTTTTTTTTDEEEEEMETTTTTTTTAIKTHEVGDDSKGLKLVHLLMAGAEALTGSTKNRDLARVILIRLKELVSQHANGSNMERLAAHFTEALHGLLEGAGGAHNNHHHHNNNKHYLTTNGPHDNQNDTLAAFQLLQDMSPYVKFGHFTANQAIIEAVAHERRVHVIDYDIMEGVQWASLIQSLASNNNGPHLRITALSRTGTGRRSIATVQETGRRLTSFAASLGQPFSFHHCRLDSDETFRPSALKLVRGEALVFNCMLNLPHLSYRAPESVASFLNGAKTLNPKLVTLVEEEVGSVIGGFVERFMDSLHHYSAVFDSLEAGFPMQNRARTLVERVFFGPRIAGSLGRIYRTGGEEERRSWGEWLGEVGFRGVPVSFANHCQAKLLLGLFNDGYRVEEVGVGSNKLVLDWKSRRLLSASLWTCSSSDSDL", "UniProt Q6RET7": "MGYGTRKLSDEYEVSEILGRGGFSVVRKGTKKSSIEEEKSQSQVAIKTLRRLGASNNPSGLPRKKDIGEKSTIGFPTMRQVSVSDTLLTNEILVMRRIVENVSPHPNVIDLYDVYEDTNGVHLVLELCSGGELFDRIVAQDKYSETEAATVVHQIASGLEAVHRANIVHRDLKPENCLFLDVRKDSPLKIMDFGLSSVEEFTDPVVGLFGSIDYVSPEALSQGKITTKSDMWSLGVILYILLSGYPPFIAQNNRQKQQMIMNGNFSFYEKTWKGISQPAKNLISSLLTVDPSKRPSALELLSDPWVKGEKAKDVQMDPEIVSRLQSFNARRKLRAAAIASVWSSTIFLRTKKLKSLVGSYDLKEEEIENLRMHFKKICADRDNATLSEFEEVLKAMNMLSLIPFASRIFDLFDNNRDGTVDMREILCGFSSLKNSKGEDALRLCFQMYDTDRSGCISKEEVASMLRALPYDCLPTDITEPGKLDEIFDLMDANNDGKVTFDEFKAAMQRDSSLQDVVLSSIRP"}, "source": "paper PMC4990646", "key": {"IPD3 (M. truncatula)": {"molecular_target": "T1, IPD3 (M. truncatula) (UniProt A7TUE1)", "T1 sequence": "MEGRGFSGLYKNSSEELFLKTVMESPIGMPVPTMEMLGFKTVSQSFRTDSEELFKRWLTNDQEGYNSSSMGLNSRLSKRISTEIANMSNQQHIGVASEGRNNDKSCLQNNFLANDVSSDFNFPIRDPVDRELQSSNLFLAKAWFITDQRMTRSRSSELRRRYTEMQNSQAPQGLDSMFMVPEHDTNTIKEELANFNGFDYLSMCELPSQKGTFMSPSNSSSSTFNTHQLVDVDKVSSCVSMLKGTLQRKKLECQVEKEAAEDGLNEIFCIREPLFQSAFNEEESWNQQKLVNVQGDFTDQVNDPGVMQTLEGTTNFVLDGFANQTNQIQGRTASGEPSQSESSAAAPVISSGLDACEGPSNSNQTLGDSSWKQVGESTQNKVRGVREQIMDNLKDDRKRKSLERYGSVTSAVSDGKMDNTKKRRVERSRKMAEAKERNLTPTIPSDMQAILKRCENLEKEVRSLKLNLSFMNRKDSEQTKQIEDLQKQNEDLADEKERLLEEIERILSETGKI", "assay": "two-hybrid; yeast AH109, pGBKT7GW and pGADT7GW fusions; growth on SD/-Leu-Trp-Ade-His with 30 or 60 mM 3AT"}, "NSP2 (M. truncatula)": {"molecular_target": "NSP2 (M. truncatula) (UniProt Q5NE24)", "assay": "two-hybrid; yeast AH109, pGBKT7GW and pGADT7GW fusions; growth on SD/-Leu-Trp-Ade-His with 30 or 60 mM 3AT"}, "[1]": {"molecular_target": "calcium and calmodulin-dependent protein kinase (CCaMK) (M. truncatula) (UniProt Q6RET7)", "assay": "two-hybrid; yeast AH109, pGBKT7GW and pGADT7GW fusions; growth on SD/-Leu-Trp-Ade-His with 30 or 60 mM 3AT"}, "[2]": {"molecular_target": "calcium and calmodulin-dependent protein kinase (CCaMK) (M. truncatula) (UniProt Q6RET7)", "assay": "yeast three-hybrid; BD and AD fusions with a third protein from pBridge; liquid beta-galactosidase assay; 0.005 mM Met in the selection medium"}, "[3]": {"molecular_target": "CCaMK-S-tag (M. truncatula) (UniProt Q6RET7)", "assay": "co-IP; three proteins co-expressed in E. coli Rosetta; anti-S-tag antibody and Protein A agarose; 150 mM NaCl, 50 mM Tris-HCl pH 7.5, 0.1% Triton X-100; blot with anti-HIS"}, "[4]": {"molecular_target": "T2, IPD3-cYFP (M. truncatula) (UniProt A7TUE1)", "T2 sequence": "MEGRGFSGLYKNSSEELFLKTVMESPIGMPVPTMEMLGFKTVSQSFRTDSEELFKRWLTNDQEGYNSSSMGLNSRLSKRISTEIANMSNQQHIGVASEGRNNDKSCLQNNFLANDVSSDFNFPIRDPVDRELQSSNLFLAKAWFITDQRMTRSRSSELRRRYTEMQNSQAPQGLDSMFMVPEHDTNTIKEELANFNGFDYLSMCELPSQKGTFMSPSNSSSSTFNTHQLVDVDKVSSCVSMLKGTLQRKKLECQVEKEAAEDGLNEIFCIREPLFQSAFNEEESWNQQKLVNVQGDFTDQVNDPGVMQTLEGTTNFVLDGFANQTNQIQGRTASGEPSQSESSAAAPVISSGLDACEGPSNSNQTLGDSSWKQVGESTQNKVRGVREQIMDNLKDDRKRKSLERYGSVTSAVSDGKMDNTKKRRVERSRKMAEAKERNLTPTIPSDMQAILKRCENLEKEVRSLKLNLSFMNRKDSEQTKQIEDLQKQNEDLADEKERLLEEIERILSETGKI", "assay": "split reporter; BiFC with nYFP and cYFP fusions in Arabidopsis mesophyll protoplasts; confocal microscopy"}, "[5]": {"molecular_target": "NSP2-cYFP (M. truncatula) (UniProt Q5NE24)", "assay": "split reporter; BiFC with nYFP and cYFP fusions in Arabidopsis mesophyll protoplasts; confocal microscopy"}, "[6]": {"molecular_target": "Flag-tagged NSP2 (M. truncatula) (UniProt Q5NE24)", "assay": "co-IP; Flag-NSP2, Myc-DELLA and HA-IPD3 co-expressed in N. benthamiana leaves (also without MtDELLA); anti-flag M2 agarose; 50 mM Tris-HCl pH 7.5, 150 mM NaCl, 1 mM EDTA, 0.2% Triton X-100; 4 °C"}}, "note": "Results are given in words; binding and its absence hold for the method and conditions named. For some of these results: Binding seen in cells or lysates may run through a third protein. Some entries that bind do so weakly or less than the wild type. For some of these results: Where a sequence is shown, tags or fusion partners need not be part of it.", "data": [{"binder": "MtDELLA1 (protein, UniProt A0A396IUP1 1-594) MKREHQESFGGGVISNNNKTNTNHLNSSKNINFGECSSMQNTNTKQNMWREEKETNGGGMDELLAALGYKVRSSDMADVAQKLEQLEMVMGSAQEEGINHLSSDTVHYDPTDLYSWVQTMLTELNPDSSQINDPLASLGSSSEILNNTFNDDSEYDLSAIPGMAAYPPQEENTAAKRMKTWSEPESEPAVVMSPPPAVENTRPVVLVDTQETGVRLVHTLMACAEAIQQKNLKLAEALVKHISLLASLQTGAMRKVASYFAQALARRIYGNPEETIDSSFSEILHMHFYESSPYLKFAHFTANQAILEAFAGAGRVHVIDFGLKQGMQWPALMQALALRPGGPPTFRLTGIGPPQADNTDALQQVGWKLAQLAQTIGVQFEFRGFVCNSIADLDPNMLEIRPGEAVAVNSVFELHTMLARPGSVEKVLNTVKKINPKIVTIVEQEANHNGPVFVDRFTEALHYYSSLFDSLEGSNSSSNNSNSNSTGLGSPSQDLLMSEIYLGKQICNVVAYEGVDRVERHETLTQWRSRMGSAGFEPVHLGSNAFKQASTLLALFAGGDGYRVEENNGCLMLGWHTRSLIATSAWKLPQNESK", "values": [{"measurement": "binding", "setting": "IPD3 (M. truncatula)", "value": "binds"}, {"measurement": "binding", "setting": "NSP2 (M. truncatula)", "value": "binds"}, {"measurement": "binding", "setting": "[1]", "value": "no binding"}]}, {"binder": "IPD3 (protein, UniProt A7TUE1 1-513) MEGRGFSGLYKNSSEELFLKTVMESPIGMPVPTMEMLGFKTVSQSFRTDSEELFKRWLTNDQEGYNSSSMGLNSRLSKRISTEIANMSNQQHIGVASEGRNNDKSCLQNNFLANDVSSDFNFPIRDPVDRELQSSNLFLAKAWFITDQRMTRSRSSELRRRYTEMQNSQAPQGLDSMFMVPEHDTNTIKEELANFNGFDYLSMCELPSQKGTFMSPSNSSSSTFNTHQLVDVDKVSSCVSMLKGTLQRKKLECQVEKEAAEDGLNEIFCIREPLFQSAFNEEESWNQQKLVNVQGDFTDQVNDPGVMQTLEGTTNFVLDGFANQTNQIQGRTASGEPSQSESSAAAPVISSGLDACEGPSNSNQTLGDSSWKQVGESTQNKVRGVREQIMDNLKDDRKRKSLERYGSVTSAVSDGKMDNTKKRRVERSRKMAEAKERNLTPTIPSDMQAILKRCENLEKEVRSLKLNLSFMNRKDSEQTKQIEDLQKQNEDLADEKERLLEEIERILSETGKI", "values": [{"measurement": "binding", "setting": "[2]", "value": "binds"}]}, {"binder": "HIS-IPD3 (protein, UniProt A7TUE1 1-513) MEGRGFSGLYKNSSEELFLKTVMESPIGMPVPTMEMLGFKTVSQSFRTDSEELFKRWLTNDQEGYNSSSMGLNSRLSKRISTEIANMSNQQHIGVASEGRNNDKSCLQNNFLANDVSSDFNFPIRDPVDRELQSSNLFLAKAWFITDQRMTRSRSSELRRRYTEMQNSQAPQGLDSMFMVPEHDTNTIKEELANFNGFDYLSMCELPSQKGTFMSPSNSSSSTFNTHQLVDVDKVSSCVSMLKGTLQRKKLECQVEKEAAEDGLNEIFCIREPLFQSAFNEEESWNQQKLVNVQGDFTDQVNDPGVMQTLEGTTNFVLDGFANQTNQIQGRTASGEPSQSESSAAAPVISSGLDACEGPSNSNQTLGDSSWKQVGESTQNKVRGVREQIMDNLKDDRKRKSLERYGSVTSAVSDGKMDNTKKRRVERSRKMAEAKERNLTPTIPSDMQAILKRCENLEKEVRSLKLNLSFMNRKDSEQTKQIEDLQKQNEDLADEKERLLEEIERILSETGKI", "values": [{"measurement": "binding", "setting": "[3]", "value": "binds"}]}, {"binder": "MtDELLA2 (protein, UniProt A0A396GMX6 1-533) MKREHKLEHEDMSSGSGKSGVCWEDDGGGMDELLAVVGYKVKSSDMAEVAQKLEQLEQAMMGNNFHDHDESTIAQHLSNDTVHYNPSDISNWLQTMLSNFDPQPNNPSVNSDDNDLNAIPGKAIYAADEFTSRKRVKRNESVTVTTESTTTRPIMVVETQEKGIRLVHSLMACAEAVEQNNLKMAEALVKQIGYLAVSQEGAMRKVATYFAEGLARRIYGVFPQHSVSDSLQIHFYETCPNLKFAHFTANQAILEAFQGKSSVHVIDFSINQGMQWPALMQALALRPGGPPAFRLTGIGPPASDNSDHLQQVGWRLAQFAQTIHVQFEYRGFVANSLADLDASMLELRSPETESVAVNSVFELHKLNARPGALEKVFSVIRQIRPEIVTVVEQEANHNGPAFLDRFTESLHYYSTLFDSLEGSSVEPQDKAMSEVYLGKQICNVVACEGTDRVERHETLNQWRNRFNSAGFSPVHLGSNAFKQASMLLALFAGGDGYKVEENDGCLMLGWHTRPLIATSAWKLAAANSVVVSH", "values": [{"measurement": "binding", "setting": "IPD3 (M. truncatula)", "value": "binds"}, {"measurement": "binding", "setting": "NSP2 (M. truncatula)", "value": "binds"}, {"measurement": "binding", "setting": "[1]", "value": "no binding"}]}, {"binder": "MtDELLA1-nYFP (protein, UniProt A0A396IUP1 1-594) MKREHQESFGGGVISNNNKTNTNHLNSSKNINFGECSSMQNTNTKQNMWREEKETNGGGMDELLAALGYKVRSSDMADVAQKLEQLEMVMGSAQEEGINHLSSDTVHYDPTDLYSWVQTMLTELNPDSSQINDPLASLGSSSEILNNTFNDDSEYDLSAIPGMAAYPPQEENTAAKRMKTWSEPESEPAVVMSPPPAVENTRPVVLVDTQETGVRLVHTLMACAEAIQQKNLKLAEALVKHISLLASLQTGAMRKVASYFAQALARRIYGNPEETIDSSFSEILHMHFYESSPYLKFAHFTANQAILEAFAGAGRVHVIDFGLKQGMQWPALMQALALRPGGPPTFRLTGIGPPQADNTDALQQVGWKLAQLAQTIGVQFEFRGFVCNSIADLDPNMLEIRPGEAVAVNSVFELHTMLARPGSVEKVLNTVKKINPKIVTIVEQEANHNGPVFVDRFTEALHYYSSLFDSLEGSNSSSNNSNSNSTGLGSPSQDLLMSEIYLGKQICNVVAYEGVDRVERHETLTQWRSRMGSAGFEPVHLGSNAFKQASTLLALFAGGDGYRVEENNGCLMLGWHTRSLIATSAWKLPQNESK", "values": [{"measurement": "binding", "setting": "[4]", "value": "binds"}, {"measurement": "binding", "setting": "[5]", "value": "binds"}]}, {"binder": "MtDELLA2-nYFP (protein, UniProt A0A396GMX6 1-533) MKREHKLEHEDMSSGSGKSGVCWEDDGGGMDELLAVVGYKVKSSDMAEVAQKLEQLEQAMMGNNFHDHDESTIAQHLSNDTVHYNPSDISNWLQTMLSNFDPQPNNPSVNSDDNDLNAIPGKAIYAADEFTSRKRVKRNESVTVTTESTTTRPIMVVETQEKGIRLVHSLMACAEAVEQNNLKMAEALVKQIGYLAVSQEGAMRKVATYFAEGLARRIYGVFPQHSVSDSLQIHFYETCPNLKFAHFTANQAILEAFQGKSSVHVIDFSINQGMQWPALMQALALRPGGPPAFRLTGIGPPASDNSDHLQQVGWRLAQFAQTIHVQFEYRGFVANSLADLDASMLELRSPETESVAVNSVFELHKLNARPGALEKVFSVIRQIRPEIVTVVEQEANHNGPAFLDRFTESLHYYSTLFDSLEGSSVEPQDKAMSEVYLGKQICNVVACEGTDRVERHETLNQWRNRFNSAGFSPVHLGSNAFKQASMLLALFAGGDGYKVEENDGCLMLGWHTRPLIATSAWKLAAANSVVVSH", "values": [{"measurement": "binding", "setting": "[4]", "value": "binds"}, {"measurement": "binding", "setting": "[5]", "value": "binds"}]}, {"binder": "Myc-tagged DELLA2 (protein, UniProt A0A396GMX6 1-533) MKREHKLEHEDMSSGSGKSGVCWEDDGGGMDELLAVVGYKVKSSDMAEVAQKLEQLEQAMMGNNFHDHDESTIAQHLSNDTVHYNPSDISNWLQTMLSNFDPQPNNPSVNSDDNDLNAIPGKAIYAADEFTSRKRVKRNESVTVTTESTTTRPIMVVETQEKGIRLVHSLMACAEAVEQNNLKMAEALVKQIGYLAVSQEGAMRKVATYFAEGLARRIYGVFPQHSVSDSLQIHFYETCPNLKFAHFTANQAILEAFQGKSSVHVIDFSINQGMQWPALMQALALRPGGPPAFRLTGIGPPASDNSDHLQQVGWRLAQFAQTIHVQFEYRGFVANSLADLDASMLELRSPETESVAVNSVFELHKLNARPGALEKVFSVIRQIRPEIVTVVEQEANHNGPAFLDRFTESLHYYSTLFDSLEGSSVEPQDKAMSEVYLGKQICNVVACEGTDRVERHETLNQWRNRFNSAGFSPVHLGSNAFKQASMLLALFAGGDGYKVEENDGCLMLGWHTRPLIATSAWKLAAANSVVVSH", "values": [{"measurement": "binding", "setting": "[6]", "value": "binds"}]}]}
